Laboratory results taken from the RNAGym collection of RNA variant scans (doi:10.7554/elife.90254).
Read counts are not given, so values of variants with three or more changes are uncertain.

B1: OR4K15 (parent)
chain: GUUAACGGUCAUAGGCCAUGGAAACUAGGAGCACCAUUUCGCUGCCAGUGAAGAAAUGAACAAAGAAAAUCUGGGCCAGGCAGGCAUCAAAAGAAAUAGUCUUGCGCUCAACCAGAAAGUCUGUAAUCAUUUUAAGGGUA

Variants of: B1
Experiment: self-cleavage, relative activity (ratio to wild type); higher = more cleavage; in vitro, sequencing; the parent is a self-cleaving ribozyme

Row | Variant | self-cleavage
1 | A66C G75A A91G U108C A118G U127C | 0
2 | A66G U87C A95G C107G U122C | 0
3 | A60G U122C A125G | 0.35
4 | A63G U127A U131C | 1.68
5 | A60U A66G C81A | 0.5
6 | G65U A125G U130A U131C | 0.37
7 | A63U A69G A129C | 0.4
8 | A60G U87C A114G U130C | 0.09
9 | A66U G79A U108C U120G A129U | 0.01
10 | A64G A89U A91G | 1.51
11 | A60G C121U U127C G137A | 1.48
12 | A63U A86G U108C U120C | 0
13 | A63G A69G A95G A96G | 1.18
14 | A66G U70C U103A U127C | 0.05
15 | C61U U70C U108C | 0.03
16 | A60G A66G A114U | 0.06
17 | A64G A68G A118G | 1.06
18 | A62G A95G A114G U131C | 0.25
19 | A64U U72C A91G A129G U130C U132A | 0.04
20 | A64G U87C A111G | 0.04
21 | A62G A90G C121A | 1.87
22 | A63G A66G A117G | 1.6
23 | A64G A66G A68G C109U | 0.29
24 | A64G G79A A86U A111G | 0.01

Row | Variant | self-cleavage
25 | A64U U100A U102C U108C U122C | 0
26 | A62G A67U A68G U122C | 1.23
27 | A64G A92G U130C | 0.34
28 | A63G A91G G137U | 1.41
29 | A63C A91G U131C | 1.52
30 | A60U A96G A110G | 0.16
31 | A62U U70C C88A A91G A94U | 0.36
32 | A63G A69U U102C | 1.59
33 | A66U G106A A126G | 0
34 | A66G A86G U102C | 1.73
35 | A60G A82G A90C | 0.21
36 | A63C U131C U132C | 1.24
37 | A60G U120C A140G | 1.1
38 | A60G A66G A78U A95U | 0.21
39 | A62G A66G A140G | 1.59
40 | A60C U102C A125G | 1.21
41 | A60U A64C U97C | 1.71
42 | C61U A118G A126G | 0.8
43 | A66U A94G A116G | 0.68
44 | A60G A66G A95G | 1.36
45 | A66G U87C A96G | 2.11
46 | A62G U70C A116U A118G | 0.03
47 | A66G C81U U102C | 0.91
48 | A60G A68G A114U | 0.02

Row | Variant | self-cleavage
49 | A62G A95G C105U U120C | 0.02
50 | A60G U120G U127C A129C U131C | 0.59
51 | A62G A86G U122A | 1.06
52 | A66G U70C U100A | 0.22
53 | A62G A95G U120A | 1.96
54 | A60G A94G A110U U139C | 1
55 | A63G U70C A116G | 0.7
56 | A60G A78C U87C A89U | 0.07
57 | A59G U127C U133C | 0.72
58 | A62G A82U A96G U122A | 0.24
59 | A62U A78G A92G U97C A117G | 0.13
60 | A60G A67G A96U A117G A118G A135G U139A | 0.97
61 | A63G A69G U132G | 2.74
62 | A60G U87A A116G | 0.31
63 | A64G U70C A95G C109A U120A U127A U139C | 0.51
64 | A62G A95G U131C | 2.98
65 | A66G U103C A111G | 0.01
66 | A60G U108C G115U | 0
67 | A62U A82G A94U A125G | 0.24
68 | A60U C76A U127A U131C G137A | 0.15
69 | A62G U103A A111G A118G | 0
70 | A60C A67G A134G | 1.74
71 | A66G U108C U124A | 0
72 | A63G A82U A98U U100C A118G | 0.73

Row | Variant | self-cleavage
73 | A60C G119A U122C U132C | 1.58
74 | A64G A68G G106A | 0.02
75 | A66G A68G U122C | 1.08
76 | A64G A78G A91G A111U | 0.05
77 | G65U A96G C105U | 0.12
78 | A62G U87C A90G | 0.4
79 | A64G U72C C81A A86G U87C | 0.09
80 | A62G A67G A126G | 1.56
81 | A64U A126G A140U | 0.64
82 | A64G U108C U122C | 0.01
83 | A64G A67G C128A | 0.77
84 | A64G A82U U87C | 0.16
85 | A60G A64G A116G A126G | 0.21
86 | A62U A91U U100C | 2.48
87 | A60G A86U U87C | 0.94
88 | A62U A64G A69U U87C U102C | 2.61
89 | A66G A111G A140G | 0.03
90 | A62G A69G A90G A110G | 0.12
91 | A59G U102C U133C | 1.48
92 | A59U A95G A126G U127C | 0.46
93 | A63G A78G A91U | 0.45
94 | A63G A67G A92G U122A | 0.47
95 | A60G A78G U122C | 0.27
96 | A60G A67G G106A | 0.02

Row | Variant | self-cleavage
97 | G65U U70C A89G A111G A126G | 0.05
98 | A62G A92G U132C | 1
99 | A62G A68G A91G A92G U108C A116G | 0.05
100 | A59U U102C A111G U131C | 0
101 | A59G U108G A110U A140G | 0.03
102 | A63G A66U A117G | 1.78
103 | A64G C112A A114U | 0.01
104 | A59G U100C U103C | 1.13
105 | A60G U103C A111G A140G | 0
106 | A60G A67G G74U A86G | 0.04
107 | A60G A63G G119A | 1.99
108 | A60G A78U A118G | 0.06
109 | C61U A69G U100C | 2.07
110 | A60G A66G A94G U120C | 1.59
111 | A63G G73U A110G | 0.06
112 | A62C A116G U122C | 0.46
113 | A62U A86G A94G A129G | 1.26
114 | A62G A64G G106A A117U | 0.03
115 | A66U A98G U130C | 0.26
116 | A60C A66G A78U | 0.28
117 | A60G A63G A64G A111C A126G | 0.01
118 | A62G U100C U124C U132C | 1.95
119 | A63G A78U U122C | 0.17
120 | A66G A86U U131C | 0.75

Row | Variant | self-cleavage
121 | A60U A78U U122C | 0.21
122 | A62U A91G A110G | 0.13
123 | A66G C85U U127C | 0.79
124 | A60G A67G U122C | 1.62
125 | A64G A69G A126G | 0.64
126 | A66G A67G A95G | 1.75
127 | A64U A69G A89U | 0.75
128 | A59U A82G A92U A98G | 0.25
129 | A60G C85U A89G A91G A118U U139C | 0.09
130 | A60G A98G U100C A111U | 0.02
131 | A64G A78U U103C | 0.13
132 | A62U U100C A117G | 2.97
133 | A64G A111U A126G | 0.09
134 | A66G A78U A94G A129G | 0.24
135 | A62U U102A A116U | 0.16
136 | A62G A64G U72A A116G A118G | 0.06
137 | A59U A62G A82G A91G U130C | 0.04
138 | A60U A86G A98G | 0.18
139 | A64G A114U A118G | 0
140 | G65A U70C A95G | 0.6
141 | A59G U97C U127C | 0.93
142 | A60G A86U A116G | 0.7
143 | A62G A94G A126C | 0.74
144 | A60G G83A A125U | 2.35

Row | Variant | self-cleavage
145 | A60G A67G A90G | 0.14
146 | A62G A67G A69G U108A U122C | 0.04
147 | A60G U70C A114G | 0.04
148 | A63G A91G A92G A94G | 0.75
149 | A66U A69G A90G U102A | 0.06
150 | A59U A66G U120C | 2.04
151 | A60G C85U G104A | 0.16
152 | A63G C81U A86G | 0.16
153 | A62G A94G U108A | 0.01
154 | A60G U70C A90G | 0.58
155 | A59U A96G U97C A116G | 0.13
156 | A60G U102G U131C | 0.54
157 | A62G A63G A78U | 0.35
158 | A63G A69G A94G | 1.08
159 | A66G A82U U108C | 0.02
160 | C61A A92G A118G | 1.43
161 | A60G A92G U120A | 2.61
162 | A60U A91U U127A | 1.8
163 | A64G A90G U108C U122C | 0.03
164 | A62G A82G A114U | 0.04
165 | A62G G73A A82G | 0.29
166 | A66C A89G U103C U132C | 0.93
167 | A66G A89G U122G | 2.37
